Measurements as given in PubChem BioAssay AID1347044 (National Center for Advancing Translational Sciences (NCATS), 2019).
Some of the results follow. Shown are side measurements of this screen, not its main read-out; they come without a call. The list favours compounds with an active or inconclusive main result. The note in brackets gives the kind of curve behind each potency; many fits are weak.

Test: Natriuretic polypeptide receptor (hNpr1) antagonism - Confirmation; note: nearly all actives have a fitted effect of over 70% in size
Details: HEK293 hNpr1 cGMP GloSensor luminescence, ANP-stimulated; measured here: HEK-hNpr1 cytotoxicity, CellTiter-Glo
Experimental: In order to identify small molecular compounds that inhibit the hNpr1 receptor we developed a high-throughput assay to measure inhibition of the guanylate cyclase activity of the receptor. cGMP production was measured using a circular permutated Firefly luciferase (FLuc) enzyme functionally linked to the cGMP binding domain of human phosphodiesterase 5 (GloSensor technology pGS-40F, (Fan, F. et al. 2008). The cGMP-sensor was expressed in human embryonic kidney 293 (HEK-293) cells and FLuc activity was measured after stimulation with hNrp agonist peptide. hNrp agonists activates the receptor's associated guanylyl cyclase (GC) domain producing cGMP which then binds to the GloSensor resulting in FLuc activation, the enzymatic activity of which can be measured as bioluminescence with addition of luciferin substrate. A cytotoxicity counter-screen using the HEK-hNpr1-cGMP-sensor cells was also performed on the follow-up compounds. F. Fan, B. F. Binkowski, B. L. Butler, P. F. Stecha, M. K. Lewis, K. V. Wood, Novel genetically encoded biosensors using firefly luciferase. ACS Chem Biol 3, 346-351 (2008).
PROTOCOL TABLES (as described by Inglese J, Shamu CE and Guy RK. 2007) SEQUENCE No. (e.g., 1, 2, 3, etc.); PARAMETER (e.g., Cells, Incubation, Reagent, etc.); VALUE and DESCRIPTION. GLOSENSOR PROTOCOL 1. Cells. Seed 1500 HEK293 cGMP-sensor cells expressing hNpr1 per well in 4uL into Greiner 1536-well white/solid bottom high base, tissue culture-treated plates. 2. Incubation. Incubate plated cells at 37C in 5% CO2, 95% RH overnight. 3. Reagent. Add 1uL per well GloSensor reagent from Promega (2% final concentration) or CO2 independent media vehicle control to respective columns of Greiner 1536-well plates. 4. Incubation. Incubate plated cells at room temperature for 2 h, protect from light. 5. Compounds. Library compounds and A-71915 control added at 23 nL per well, transferred by Pin Tool. 6. Incubation. Incubate plated cells for 30 min. at room temperature, protect from light. 7. Detector. GloSensor baseline pre-read luminescence measured using CCD-based camera (Viewlux). 8. Compound. Add 1uL of hNppA peptide to 0.1 nM final concentration to stimulate hNpr1 or CO2 independent media as vehicle control. 9. Incubation. Incubate treated cells at room temperature for 20 min., protect from light. 10. Detector. GloSensor post-hNppA luminescence measured using CCD-based camera (Viewlux). NOTES (numbers refer to Sequence numbers above) 1. HEK293 cells expressing hNpr1 and GIP/pGS-40F grown to 85-95% confluence (48-72 h) in T175 culture flasks (CO2 independent media supplemented with 10% FBS, 1% Pen/Strep antibiotics and 1 ug/mL puromycin). Trypsinize and harvest cells from T175 culture flasks and filter through 40 um cell strainer. Cells counted with Invitrogen Countess (30,000,000 - 50,000,000 cells/flask). Cells diluted to a final concentration of 375 cells/uL in CO2 independent media and a Millipore multidrop used to dispense 1500 cells per well (4uL/well) into 13 1536-well Greiner White/Solid bottom, high base tissue-culture treated (TC) plates and one Aurora 1536-well Black/Clear bottom, low base, TC plate (for visual inspection of cell health throughout the duration of the assay). 2. Cells incubated overnight at ambient temperature, 24 h. at 37C in 95% RH incubator protected from light, covered with metal lid with gas-exchange holes. 3. Prepare GloSensor Reagent (Promega): Reconstitute GloSensor luciferase substrate by adding 8.2mL Hepes buffer to 250mg substrate, mix well, protect from light and stored at -80C. Prepare a fresh 12% GloSensor solution in CO2 independent supplemented plating media (see above). Mix well and store at ambient temperature, protected from light. 1uL 12% GloSensor Luciferase Reagent added (2% final concentration) to respective columns of 13 x 1536-well Greiner plate with BioRaptr, 1uL CO2 independent plating media added to respective columns as vehicle control with BioRaptr. 4. […]
Tags give direction and shape of the fitted curve.

SMILES | CC50
Cc1nc(N2CCC(NC(=O)c3ccc4ccccc4n3)CC2)cc(C(F)(F)F)n1 | 19.3 µM [falling, partial curve]
COc1ccc(OC)c(S(=O)(=O)N[C@H]2CO[C@H]3[C@@H]2OC[C@H]3OC(=O)Nc2cccc(C(F)(F)F)c2)c1 | 24.3 µM [falling, partial curve]
CC1(c2noc(C3CCOCC3)n2)CCN(Cc2ccc(Cl)cc2F)CC1 | 21.7 µM [falling, partial curve]
Cc1cccc(CN2CCCn3nc(C)c(-c4ccccc4-c4ccccc4)c32)n1 | 62.7 µM [falling, single point]
O=C(c1cocn1)N1CCNc2cnc(Nc3cccc(C(F)(F)F)c3)nc2C1 | 31.4 µM [falling, partial curve]
COc1cccc(CCC(=O)N2CCC(Cc3nc(-c4ccc(F)cc4)no3)CC2)c1 | 21.7 µM [falling, partial curve]
CCNc1cc(N2CCC(CCC(=O)N3CCN(c4cccc(OC)c4)CC3)CC2)ncn1 | 17.2 µM [falling, partial curve]
O=C(c1ccccc1F)N1CCN(C(=O)c2nnn3c2COC(c2ccc(Cl)cc2)C3)CC1 (stereo not given) | 21.7 µM [falling, partial curve]
COc1cccc(NC(=O)Cc2c[nH]c3ncc(-c4cccnc4OC)cc23)c1 | 44.4 µM [falling, partial curve]
CC(=O)Nc1ccc(S(=O)(=O)N[C@H]2CO[C@H]3[C@@H]2OC[C@@H]3Nc2nccc(-c3cccc(F)c3)n2)cc1 | 19.3 µM [falling, partial curve]
COc1cc(Cl)ccc1C(=O)N1CCN(C(=O)c2nnn3c2COC(c2ccccc2)C3)CC1 (stereo not given) | 24.3 µM [falling, partial curve]
COc1ccc2ccc(OCc3nc(C(=O)N4CCNC(=O)C4C)co3)cc2c1 (stereo not given) | 21.7 µM [falling, partial curve]
CCOC(=O)C1(Cc2ccc(Cl)cc2)CCN(C(=O)c2cc(C)oc2C)CC1 | 24.3 µM [falling, single point]
O=C(c1ccc2c(c1)OCO2)N1CCC(Cc2nc(-c3ccc(F)cc3)no2)CC1 | 3.85 µM [falling, full curve]
COc1ccc(C(=O)Nc2ccc(-c3noc([C@@H]4CCCN4Cc4ccc(F)c(F)c4)n3)cn2)cc1 | 6.85 µM [falling, full curve]
CC(C)N1C(=O)CO[C@H]2CCN(Cc3ccccc3Cl)CC[C@@H]21 | 11.1 µM [falling, partial curve]
COc1ccc(NC(=O)c2cccc3c2CCN3C(=O)c2ccc(F)cc2)c(OC)c1 | 21.7 µM [falling, partial curve]
Cc1nc(CN(C)C(=O)c2cc(Cn3c(C)nc4ccccc43)on2)cs1 | 17.2 µM [falling, partial curve]
COc1cccc(CN2CCC(Oc3ccc(-c4noc(C5CC5)n4)cc3)C2)c1 (stereo not given) | 24.3 µM [falling, partial curve, poor fit]
CC1(C)[C@H](Cc2cc(CN3CCN(c4ccccc4)CC3)on2)C[C@@H]1NC(=O)Nc1ccc(F)cc1 | 19.3 µM [falling, partial curve]

SMILES | CC50
COC[C@@H]1CN(Cc2c(OC)cccc2OC)C[C@H]1c1ccncc1 | 21.7 µM [falling, partial curve]
COc1cccc(-c2noc(CC3CCN(C(=O)c4cccc(Cl)c4)CC3)n2)c1 | 17.2 µM [falling, partial curve]
Cc1noc(C)c1-c1cc2c(c(-c3ccccc3)c1)C(=O)N(C)C2 | 25 µM [falling, partial curve]
O=C(Cc1cccc(F)c1)N1CCC2(CC1)N=C(c1ccc(Cl)cc1)NO2 | 21.7 µM [falling, partial curve]
CS(=O)(=O)c1ccc(CN2CC[C@@H](c3ccc4ccccc4c3)[C@H](O)C2)cc1 | 24.3 µM [falling, partial curve]
COc1ccc(S(=O)(=O)NC[C@H]2COCc3nc4c(C)cccc4n32)cc1 | 31.4 µM [falling, partial curve]
N#Cc1ccc(C(=O)N2CCN(c3cc(-c4ccc(Cl)cc4)[nH]n3)CC2)cc1 | 17.2 µM [falling, partial curve]
Cc1ccc(C(=O)N2CCC3(CC2)CC(N(Cc2ccccc2)C2CC2)CCO3)cc1F (stereo not given) | 21.7 µM [falling, partial curve]
COc1ccc(OC)c(CN2CCCn3nc(C)c(-c4ccccc4C(C)C)c32)c1 | 39.6 µM [falling, partial curve]
CC(C)(C)C(=O)N[C@H]1CO[C@H]2[C@@H]1OC[C@@H]2Nc1nccc(-c2ccc(-c3ccccc3)cc2)n1 | 21.7 µM [falling, partial curve]
COc1ccc(-c2noc([C@@H]3C[C@H](NS(=O)(=O)c4ccc5ccccc5c4)CN3C)n2)cc1 | 19.3 µM [falling, partial curve]
CCOc1ccc(C(=O)N2CCCN(c3cc(-c4ccc(Cl)cc4)[nH]n3)CC2)cc1OCC | 15.3 µM [falling, partial curve]
CC(C)(C)CC(=O)N[C@H]1C[C@@H](Cc2cc(COc3ccccc3)on2)C1(C)C | 19.8 µM [falling, partial curve]
O=S(=O)(N[C@H]1CO[C@H]2[C@@H]1OC[C@@H]2Nc1nccc(-c2cccs2)n1)c1cccs1 | 13.7 µM [falling, partial curve]
O=C(NCc1ccc(Cl)cc1)C1CCN(c2cc(C(F)(F)F)ncn2)CC1 | 19.3 µM [falling, partial curve]
COc1cc(CNC(=O)c2ccc3c(c2)N(C(=O)c2ccc(F)cc2)CC3)cc(OC)c1 | 21.7 µM [falling, partial curve]
CC(C)c1nncn1C1CCN(S(=O)(=O)c2ccc(Br)s2)CC1 | 13.7 µM [falling, partial curve]
CN(Cc1nc(Cc2ccccc2Cl)no1)Cc1cccc2cnccc12 | 10.9 µM [falling, partial curve]
Cc1cccc2nc(C(=O)N3CCCC(c4[nH]ncc4-c4ccccc4)C3)cn12 (stereo not given) | 12.2 µM [falling, full curve]
Cc1ccccc1SC1CCN(c2cc(C3CC(O)C3)ncn2)CC1 (stereo not given) | 15.3 µM [falling, partial curve]

SMILES | CC50
O=C(NCc1nnc2cc(-c3nc(C4CC4)no3)ccn12)c1ccc(F)cc1Cl | 17.2 µM [falling, partial curve]
O=C1NCN(Cc2ccc(Cl)cc2)C12CCN(Cc1ccccc1)CC2 | 17.2 µM [falling, partial curve]
O=C(Nc1cccnc1)c1nc2c(o1)CCN(Cc1ccc(F)cc1F)CC2 | 31.4 µM [falling, partial curve]
O=C(c1ccccc1Cl)N1CCN(c2cc(-c3ccc(Cl)cc3)[nH]n2)CC1 | 17.2 µM [falling, partial curve]
O=C(c1cc(F)ccc1F)N1CCCC(n2cc(-c3nc(-c4ccccc4)no3)nn2)C1 (stereo not given) | 21.7 µM [falling, partial curve]
O=C(c1csc(N2CCN(c3ccccc3)CC2)n1)N1CCCCCC1 | 24.3 µM [falling, partial curve]
O=C1COc2ccc(OCc3ccc(F)cc3)nc2CN1CCOc1ccccc1 | 35.3 µM [falling, partial curve]
COc1ccc2ccc(OCc3nc(C(=O)N(C)Cc4cc(C)no4)co3)cc2c1 | 38.5 µM [falling, single point]
CCOc1ccc(C(=O)N2CCCN(c3cc(-c4ccc(Cl)cc4)[nH]n3)CC2)cc1 | 19.3 µM [falling, partial curve]
O=C(CCC1CCN(S(=O)(=O)c2ccc(F)cc2)CC1)NCc1nc2ccccc2[nH]1 | 21.7 µM [falling, partial curve]
O=C(CCc1nc2ccccc2s1)N1CCC(Cc2noc(-c3ccc(F)cc3)n2)C1 (stereo not given) | 21.7 µM [falling, partial curve]
F[C@@H]1CN(Cc2ccc(C(F)(F)F)cc2)C[C@@H]1OCc1nc2ccccc2[nH]1 | 35.3 µM [falling, partial curve]
O=C(Cc1ccc(F)cc1)N1CCC(Cc2nc(-c3ccc(F)cc3)no2)CC1 | 21.7 µM [falling, partial curve]
Cc1nn(Cc2ccccc2)c(C)c1[C@@H]1C=C[C@@H](NC(=O)c2ccc3c(c2)OCO3)C1 | 39.6 µM [falling, partial curve]
O=C(Cc1c[nH]c2ncc(-c3ccc(Oc4ccccc4)cc3)cc12)N1CCOCC1 | 31.4 µM [falling, partial curve]
CN(Cc1csc(-c2ccccc2)n1)c1cc(C2CC(O)C2)nc(N)n1 (stereo not given) | 4.85 µM [falling, partial curve]
CC1(C)[C@H](Cc2cc(COc3ccccc3)on2)C[C@@H]1NC(=O)c1cccs1 | 35.3 µM [falling, partial curve]
CN(C)c1ccc(C(=O)N2CCN(c3cc(-c4ccc(Cl)cc4)[nH]n3)CC2)cc1 | 24.3 µM [falling, partial curve]
O=C(c1cccc2[nH]ccc12)N1CCCN(c2cc(-c3ccc(Cl)cc3)[nH]n2)CC1 | 15.3 µM [falling, partial curve]
O=C(c1ccc(Cl)cc1)N1CCN(c2cc(-c3ccc(Cl)cc3)[nH]n2)CC1 | 21.7 µM [falling, partial curve]
